Here are results for 167 variants from the RNAGym collection of RNA variant scans (doi:10.1101/gad.245936.114).

This sample is rich in variants without activity.

To fix the notation:
B1: tRNA (parent)
chain: CUCUCGGUAGCCAAGUUGGUUUAAGGCGCAAGACUUUAAUUUAUCACUACGAAAUCUUGAGAUCGGGCGUUCGACUCGCCCCCGGGAGAUUUUUUCCUCGAGCAA

The variants in this data set derive from B1. As to the kind of experiment: nonsense suppression (GFP-seq) (ratio to wild type); higher = more function; SUP4oc tRNA, yeast GFP reporter sort-seq. In short, it runs like this:
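Each variant's nonsense suppression (GFPSEQ) is a cell-share-weighted bin median GFP/RFP relative to the unmutated parent tRNA. Yeast with genome-integrated tRNA variants from a ~3% random-mutation library, a galactose-driven GFP ochre reporter and RFP were grown in raffinose/galactose medium with 80 mg/L adenine, then sorted into GFP/RFP bins for Illumina sequencing. Variants needed ≥100 reads and ≥30 cells.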
On to C5G G19A A62U, for which the nonsense suppression is at most 0.026.
Next, U17C C34U U55A: at most 0.026; A62C C83A: at most 0.026.
On to C1G C3U U35A, for which the nonsense suppression was at most 0.026.
For the variant U21A A89U, the nonsense suppression was at most 0.026.
Turning to U4A A24U, the nonsense suppression came to 0.0458.
Consider C12U A23C U70C, for which the nonsense suppression is at most 0.026.
With C5U G78A, the nonsense suppression was at most 0.026.
Next, C11A A14C U17C U20C: at most 0.026; A9U C29U A31U: at most 0.026; C3G U4C G7U A13C: at most 0.026.
Turning to C5U U8C G65A, the nonsense suppression is at most 0.026.
Next, G10U U22C C29U C79G: at most 0.026.
Next, G67C G73C: at most 0.026; C29U G59C: 0.0272; A62U G69C G78U C82A: at most 0.026.
As to C3A G15C U58G, the nonsense suppression is at most 0.026.
As for A9C U17A C72G, the nonsense suppression is at most 0.026.
Regarding A24C G25A, the nonsense suppression was at most 0.026.
Take G7A A23G G32A A33C: the nonsense suppression is at most 0.026.
As for A23U G65C, the nonsense suppression was at most 0.026.
C11U U20G A33C C34G C56U U58G C82G: the nonsense suppression was at most 0.026.
As for U2C C81G, the figure is at most 0.026; as for U8A C81G A87U, at most 0.026; as for U2G A9G G10C A14G C82U G84A, at most 0.026.
Turning to A14C G32C, the nonsense suppression is at most 0.026.
Next, A31G U35C: 0.0321.
In the case of C11G G19A G78A, the nonsense suppression was at most 0.026.
Turning to U2C G15A G25C G32A, the nonsense suppression is at most 0.026.
Consider A9C G15A, for which the nonsense suppression is at most 0.026.
Next, A24C A33U C72U A74C: at most 0.026; A30U U35G C80A: at most 0.026.
As for U2C U4C A9G A24C C80A, the figure is at most 0.026; as for A23U A24G U63G C75U, at most 0.026.
As for C11U U16A U63C U70G C72G U76C, the nonsense suppression was at most 0.026.
As for U2A U57A U63A C72G G73A C82G, the nonsense suppression was at most 0.026.
With G28C U57C U71C, the nonsense suppression was at most 0.026.
Next, C5G A30G U35G U63C C83A: at most 0.026; U8G G84U: at most 0.026.
For the variant G7C A14U C79A, the nonsense suppression was at most 0.026.
Next, A62C C75G: at most 0.026.
As for A14U A24G A31U, the figure is at most 0.026; as for G28C G84C, 0.239; as for A14U C34G, at most 0.026.
In the case of C11G G59C A74U C80G, the nonsense suppression is at most 0.026.
Next, C12G G65C: at most 0.026.
G59A G69A: the nonsense suppression is at most 0.026.
Next, G61U U76G: at most 0.026; U8C G67A A87C: at most 0.026.
As for C3U G61C, the figure is 0.164; as for C3U U57G, at most 0.026; as for G7C C56G G69C, at most 0.026.
As for G6A U8G C80G, the figure is at most 0.026; as for G10C C12A U22G U57A, at most 0.026.
In the case of U17C G28C A54U, the nonsense suppression came to 0.219.
U57G U58C G66A G88A: the nonsense suppression is at most 0.026.
A13U C56A: the nonsense suppression was at most 0.026.
Next, U16G A33U G78U: at most 0.026; C3G U76C C82A: at most 0.026; A14G G69U A74C: at most 0.026.
U57A U76A: the nonsense suppression was at most 0.026.
As to C3G U8A A31G C81A, the nonsense suppression was at most 0.026.
Next, C1G C77U: at most 0.026; A13C C75U G85U: 0.333.
Next, A13G C27U A33C A89G: at most 0.026; A31U G32U: at most 0.026; A14G U71A: at most 0.026.
Take A9C A33U G61U: the nonsense suppression is at most 0.026.
Take C3G C29U A87U: the nonsense suppression was at most 0.026.
Next, A33G U63C C64G: at most 0.026; G10A A60C: at most 0.026.
Next, A9U A23U C27A G84C: at most 0.026.
Next, G65U U71G G84A: at most 0.026.
As for A13U A31G U71G, the nonsense suppression is at most 0.026.
In the case of G67C G69A, the nonsense suppression was at most 0.026.
As for A14C A62U, the figure is at most 0.026; as for A14C G18C, at most 0.026; as for C34A U35C G69C, at most 0.026.
Regarding C5U U20C A23C U63C A89U, the nonsense suppression was at most 0.026.
As for G7A G32C C64U C72A, the figure is at most 0.026; as for U57A U63G, at most 0.026; as for C12G A14C U20C A31U, at most 0.026.
On to A31G C81U G84C, for which the nonsense suppression is at most 0.026.
Next, G19U A31G U57A: at most 0.026; G18U A24U C75U: at most 0.026; C79A G85C: at most 0.026.
Take G6U G15U A62U C79A G88A: the nonsense suppression is at most 0.026.
With U4C C11U C34G C82U, the nonsense suppression was at most 0.026.
As for U20G G73A, the nonsense suppression came to 0.677.
Next, C5A U8G A14U G86A A89G: at most 0.026; U20G U63G: 0.495; U22C C77U: at most 0.026.
Take G6C C11A G65A A74G: the nonsense suppression is at most 0.026.
Next, G25A C29U G59U G61U: at most 0.026; C11U A31C: at most 0.026.
In the case of U20C A33U G59U A89C, the nonsense suppression was at most 0.026.
For the variant A24C C72A, the nonsense suppression is at most 0.026.
C3U U20G G59A: the nonsense suppression was at most 0.026.
As to U16G U21A A74G C80U, the nonsense suppression is at most 0.026.
As for U21C G61A A62C, the figure is 0.0269; as for U35G G59U A60G, at most 0.026; as for C11U G67C, at most 0.026.
Next, U4A A24C C75U: at most 0.026.
Next, C1U C34U: at most 0.026.
As to U58A A74G G88A, the nonsense suppression is at most 0.026.
As to U8C U35C A89G, the nonsense suppression was at most 0.026.
G18U C80U: the nonsense suppression is at most 0.026.
In the case of C77U C81G G85A, the nonsense suppression is at most 0.026.
As for G78A G86A G88C, the figure is at most 0.026.
Next, A62G G65U: at most 0.026; U22C A33G U55G C68A G84U: at most 0.026.
As to U71G A89G, the nonsense suppression was at most 0.026.
Next, G19C G65A: at most 0.026; U8G U57C U76A G88U: at most 0.026.
Next, U20C C56G G69U U70C: at most 0.026; G25C U76C: at most 0.026.
As for A13G G26U, the figure is at most 0.026; as for G7U U58A, at most 0.026.
On to G25A G78A, for which the nonsense suppression was at most 0.026.
Regarding G15U C56U, the nonsense suppression is at most 0.026.
For G26U G86C, the nonsense suppression was at most 0.026.
As for C68G C82A, the nonsense suppression is at most 0.026.
Take U20A C68G: the nonsense suppression is at most 0.026.
Regarding C12A U20G G32A, the nonsense suppression is at most 0.026.
Take A24U C56U U58G: the nonsense suppression is at most 0.026.
As for C1A G69A G88C, the figure is at most 0.026.
As for A54C U71A, the figure is at most 0.026; as for U16A C27U G69U U71A C75G, at most 0.026; as for A23U G32C U76C, at most 0.026.
Next, C5G U35A U63A U76A C80U: at most 0.026; C11G G32U U76G: at most 0.026.
Turning to C1U C11U G65A, the nonsense suppression is at most 0.026.
As for C3G C12A G59A G84A, the figure is at most 0.026; as for A31C G65A C68G, at most 0.026; as for U35C A54C U70G G73A, at most 0.026.
For the variant G6C C77A, the nonsense suppression is at most 0.026.
As for C29G A33G C82A, the figure is at most 0.026; as for C81G G85C A89G, at most 0.026.
Consider G15U U16C A24G G32C C56G G88U, for which the nonsense suppression is at most 0.026.
Turning to G19U C29G G65C, the nonsense suppression is at most 0.026.
Next, G19C G78A: at most 0.026.
In the case of G61U U63G, the nonsense suppression is 0.232.
Turning to C3U A14U G15A A74U, the nonsense suppression was at most 0.026.
U8A U58G: the nonsense suppression is at most 0.026.
Next, C34A U76G: at most 0.026; A24G U35A: at most 0.026.
Next, C5U C77A C80A: at most 0.026; A23G C34G C82A: at most 0.026; U21G U35G G61C: at most 0.026.
As for U2C G26A G67U, the figure is at most 0.026; as for U17A U20C G32C G88U, at most 0.026.
As to A62C U63C, the nonsense suppression was at most 0.026.
As for G18U A23G A24G, the figure is at most 0.026; as for A33G G59A, at most 0.026.
For A24C U63A, the nonsense suppression worked out at 0.636.
Next, G25U G66C: at most 0.026.
As to G7U A33U, the nonsense suppression was at most 0.026.
Next, G6C U57C G65A G67A A74C G78C: at most 0.026; G19C A30C U35C G67C A89U: at most 0.026.
Take U17A U58C C81U: the nonsense suppression is at most 0.026.
For the variant U2A U58A U76A, the nonsense suppression was at most 0.026.
As for A23U C64A, the figure is at most 0.026; as for U21A G66C, at most 0.026.
Consider C11A A13G, for which the nonsense suppression was at most 0.026.
As for A24G C72G C75U, the figure is at most 0.026; as for C12A A31C, at most 0.026.
Next, U22C C68U: 1.16.
